PubChem BioAssay AID1159614 (National Center for Advancing Translational Sciences (NCATS), 2016)
In all, about 45,000 compounds went through this assay and about 65 (0.1%) were called active. Calls come from the whole dose curve; as a rule, active = well fitted activation curve with a large enough effect; inconclusive = small, poorly fitted or top-dose-only effect; inactive = no such curve, though single readings can be large or run the other way. Some of the results follow.

biological target: Galactocerebrosidase (Homo sapiens) (UniProt P54803); test: A Novel Cell-Based Assay to Identify Small Molecules for B -Galactocerebrosidase; settings: 145M-Twi-hGALC-G270D cells (Twitcher mouse brain line with human GALC G270D), HMU-beta-Gal fluorescence, 48 h; series mostly up to 57.5 µM; activation: at the top concentration; note: 0% is about no effect; nearly all actives have a fitted effect of over 65% in size
UniProt P54803, sequence (P54803 whole entry, looked up): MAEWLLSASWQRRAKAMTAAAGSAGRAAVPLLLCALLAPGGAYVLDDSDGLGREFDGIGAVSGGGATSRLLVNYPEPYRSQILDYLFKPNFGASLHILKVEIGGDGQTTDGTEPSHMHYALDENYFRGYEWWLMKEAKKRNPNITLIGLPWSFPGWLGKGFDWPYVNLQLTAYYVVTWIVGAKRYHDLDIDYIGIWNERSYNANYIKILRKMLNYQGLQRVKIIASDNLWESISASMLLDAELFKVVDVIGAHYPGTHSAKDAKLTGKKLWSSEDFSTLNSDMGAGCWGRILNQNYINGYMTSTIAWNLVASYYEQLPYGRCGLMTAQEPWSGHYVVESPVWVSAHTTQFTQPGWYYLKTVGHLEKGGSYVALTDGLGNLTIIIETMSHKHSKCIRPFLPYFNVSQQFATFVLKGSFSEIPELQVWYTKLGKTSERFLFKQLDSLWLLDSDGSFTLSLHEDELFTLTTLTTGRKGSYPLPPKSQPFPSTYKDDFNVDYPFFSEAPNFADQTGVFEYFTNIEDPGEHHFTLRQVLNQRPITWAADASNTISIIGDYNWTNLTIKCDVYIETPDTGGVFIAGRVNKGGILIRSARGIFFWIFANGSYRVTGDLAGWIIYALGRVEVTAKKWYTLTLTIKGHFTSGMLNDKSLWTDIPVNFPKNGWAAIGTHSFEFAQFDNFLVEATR
How it was run: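 Brain-derived Twitcher mouse 145M-Twi cells stably expressing human GALC-G270D or wild-type GALC, treated live, then residual GALC activity read by fluorescence of HMU-b-Gal substrate (0.1 mM final) in citrate-phosphate buffer pH 5.2 with sodium taurocholate. Signal increase indicates enhancement.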

activation, inactive:
COc1ccccc1CNC(=O)CCCCn1c(=O)c2ccccc2n(CC(=O)Nc2c(C)cc(C)cc2C)c1=O -6.57%
COc1ccccc1Cc1nc2ccccc2nc1SCC(=O)Nc1ccc2c(c1)OCO2 -9.98%
CCOc1ccccc1CNC(=O)CCC(=O)N1CCSc2ccccc21 6.34%
COc1ccc(OC)c(NC(=O)Cn2c(=O)n(Cc3ccco3)c(=O)c3cc(OC)c(OC)cc32)c1 -11.5%
Cc1ccc(C)c(NC(=O)C(Cc2ccccc2)n2cccc2)c1 (stereo not given) -8.13%
Cc1ccc(C(=O)Nc2ccc(-c3nc4ccccc4o3)cc2)cc1Cl -16.7%
Brc1ccc(Nc2c3c(nc4nncn24)CCC3)cc1 -8.64%
Cc1cc(C)cc(-n2c(SCC(=O)Nc3cccc(F)c3)nc3c([nH]c4ccccc43)c2=O)c1 -4.15%
COc1ccc2c(c1)c1c(c(=O)n(Cc3ccccc3)c(=O)n1Cc1ccccc1Cl)n2C -10.4%
COc1ccc(OCC(=O)Nc2c(C(=O)N3CCN(c4ccccc4)CC3)oc3ccccc23)cc1 -25.4%
CCc1ccc(NC(=O)C2=C(C)C(=O)OC23CCCCC3)cc1 -16.2%
Cc1ccc(NC(=O)C2CCC(CNS(=O)(=O)c3ccc4c(c3)CCCC(=O)N4)CC2)cc1F (stereo not given) 1.65%
COCCNc1nc2c(c(=O)n(Cc3cccc(Cl)c3)c(=O)n2C)n1C 1.25%
CC(=O)c1cccc(NC(=O)Cc2ccc(NC(=O)N3CCCCc4ccccc43)cc2)c1 -9.82%
COc1ccc(S(=O)(=O)N(CC(=O)NCCSc2ccccc2)c2ccc(C)cc2)cc1 -20%
CCCCNc1oc(-c2ccc(COc3ccccc3C)o2)nc1C#N -9%
CCOC(=O)c1cc(-c2ccccc2)n(CCC(=O)NCCc2cccc(C)c2)c1C -9.22%
COc1ccc(S(=O)(=O)NCCc2sc3nc(-c4ccc(C)cc4)nn3c2C)cc1C -12.6%
COC(=O)c1ccc(NC(=O)C(=O)NCC(c2cccnc2)N2CCN(c3ccccc3)CC2)cc1 (stereo not given) 3.76%
CCCCN1CCCc2cc(CN(CCCN3CCOCC3)C(=O)Nc3ccc(CC)cc3)ccc21 -20.3%
CCOC(=O)c1c(-c2ccc(OC)c(OC)c2)csc1NC(=O)c1ccc(C)cc1 -15.9%
O=C(NCc1ccc(F)cc1)c1cc2cccc3c2n1CCS3 -8.39%
O=C(O)c1cccc(NC(=O)c2cc3cc(Br)cc(Br)c3oc2=O)c1 -3.23%
COc1cc2c(cc1OC)C(COc1ccc3c(C)cc(=O)oc3c1)N(C(=O)Cc1ccccc1)CC2 (stereo not given) -5.53%
COC(=O)c1cc2sccc2n1CC(=O)Nc1ccc(C)cc1C -27.6%
Cc1ccccc1NC(=O)c1nc(S(C)(=O)=O)ncc1N(Cc1ccco1)Cc1sccc1C -11.4%
Cc1ccccc1OCC(=O)Nc1ccc(C(=O)OCc2cc(=O)n3ccsc3n2)cc1 -15.6%
Cc1ccc(-c2nc(NC(=O)CSc3ccc4ccccc4n3)ns2)cc1 -7.94%
CCN(C(=O)CCc1nc(-c2ccc(C)cc2)no1)c1cccc(Cl)c1 -15.3%
CCOc1ccccc1C(=O)NC1(C(F)(F)F)C(=O)Nc2c1c(=O)[nH]c(=O)n2-c1ccccc1 (stereo not given) -25.1%
COc1cccc(CNC(=O)c2ccc3nc(-c4ccccc4)c(-c4ccccc4)nc3c2)c1OC -8.21%
Cc1cc(C)c(Cn2c3ccccc3c3cnn(CC(=O)NCCC4=CCCCC4)c(=O)c32)c(C)c1 -3.74%
Cc1ccc(S(=O)(=O)c2cn(Cc3ccccc3)c3cc(N4CCCC4)c(F)cc3c2=O)cc1 -7.8%
[O-][n+]1cccc(/C(Cl)=N/OC[C@@H](O)CN2CCCCC2)c1 -11.3%
Cc1ccc(NC(=O)Cn2nnc(C(=O)NCCc3ccccc3)c2N)cc1 -5.93%
O=C(NCc1ccc(Cl)cc1)c1ccc2c(c1)NC(=O)C(CS(=O)(=O)Cc1ccc(F)cc1Cl)N2 (stereo not given) -14.2%
Clc1ccc(-c2csc(-c3nc(-c4ccc(Br)s4)cs3)n2)cc1 -8.65%
COc1ccc(Nc2nnc(-c3ccc(C)c(S(=O)(=O)NCc4nc5ccccc5[nH]4)c3)c3ccccc23)cc1 -13.1%
CCC(C)Sc1oc(-c2ccco2)nc1S(=O)(=O)c1ccc(Cl)cc1 (stereo not given) -8.85%
CCc1ccc(NC(=O)C2CCCN(S(=O)(=O)c3cccc4nsnc34)C2)cc1 (stereo not given) -9.14%
COc1cccc(NC(=O)CCc2nnc3n(Cc4ccccc4Cl)c(=O)c4ccccc4n23)c1 -11.3%
Cc1ccc(NC(=O)c2c(C)nc3sc(C(=O)Nc4ccc(F)cc4)c(N)c3c2-c2ccc(Cl)cc2)c(C)c1 -17.4%
Cc1ccc(Nc2c(-c3ccc(N4CCOCC4)cc3)nc3cccc(C)n23)cc1 -43.7%
O=C1CC(c2nnc(Cc3c(F)cccc3Cl)o2)CN1c1ccccc1 (stereo not given) -2.32%
Cc1cccc(CN2C(=O)c3ccccc3S(=O)(=O)c3ccc(C(=O)N(C)Cc4ccccc4)cc32)c1 -4.74%
CCOC(=O)C(O)c1ccccc1 (stereo not given) -6.72%
CCOC(=O)c1ccc(NC2(c3ccccc3)C(=O)c3ccccc3C2=O)cc1 -11.7%
Cc1ccc(-c2nnc3ccccc3c2C(=O)Nc2ccc(C)c(F)c2)cc1 1.96%
COc1ccccc1C(=O)Nc1nnc(S(=O)(=O)N2CCN(c3ccc(F)cc3)CC2)s1 -1.1%
CCOC(=O)c1ccc(NC(=O)c2sc3ccccc3c2Cl)cc1 -8.14%
CCOc1ccccc1C(=O)Nc1ccc(-n2nncc2-c2ccccc2)cc1 -21.1%
COc1ccccc1NC(=O)CN(c1cc(C)cc(C)c1)S(=O)(=O)c1c(C)[nH]c(=O)[nH]c1=O -14.4%
CCc1nnc(SCc2nc(-c3cccc(Cl)c3)oc2C)c2cc3sc(C)cc3n12 -9.75%
COc1cc(OC)c(NS(=O)(=O)c2cc3c(cc2C)N(C(C)=O)CCO3)cc1Cl -10.8%
COc1ccc(Cl)cc1NC(=O)CCn1c(=O)c2cccn2c2ccccc21 -10.8%
CN(C)c1ccc(CNC(=O)C2CCCN(S(=O)(=O)c3ccc4c(c3)CCCC(=O)N4)C2)cc1 (stereo not given) 2.79%
Cc1ccc(C)c(Cn2c(=O)cc(C(F)(F)F)c3c(C)nn(C)c32)c1 -12.2%
Cc1ccccc1C(=O)NCc1nc(-c2ccc(Cl)cc2)no1 -3.22%
Cc1cccc(NC(=O)Cn2nnc(C(=O)NCc3cccs3)c2N)c1 -4.55%
NC(=O)c1c(NC(=O)c2cc(-c3ccc(F)cc3)on2)sc2c1CCCC2 -12.6%
